In PubChem BioAssay AID2675 (National Center for Advancing Translational Sciences (NCATS), 2010):
Among all 280,000 compounds or so, about 100 (0.036%) were called active. This list was built around the results that the source calls inconclusive (neither active nor inactive); the mix of calls is not that of the screen. Calls follow the shape of the dose curve; as a rule, active = well fitted inhibition curve with a large enough effect in the signal ratio, with a control signal flat (not every such curve was filed as active); inconclusive = small, poorly fitted or top-dose-only effect, or effect the other way, or a change in a side signal; inactive = no such curve, though single readings can be large or run the other way; the % refers to the signal ratio. A potency beside an inconclusive call is a rough fit, not a confirmed value. A note “side channel” means that the fit belongs to a control or component signal, not to the main read-out.

target: Muscleblind-like protein 1 (Homo sapiens) (UniProt Q9NR56); experiment: qHTS Assay for Inhibitors of MBNL1-poly(CUG) RNA binding; settings: TR-FRET MBNL1-His/biotin-(CUG)12 binding, 665/545 ratio; activity change, negative = inhibition: at 57.5 µM (top of the series)
Chain of UniProt Q9NR56 (Q9NR56 whole entry, looked up): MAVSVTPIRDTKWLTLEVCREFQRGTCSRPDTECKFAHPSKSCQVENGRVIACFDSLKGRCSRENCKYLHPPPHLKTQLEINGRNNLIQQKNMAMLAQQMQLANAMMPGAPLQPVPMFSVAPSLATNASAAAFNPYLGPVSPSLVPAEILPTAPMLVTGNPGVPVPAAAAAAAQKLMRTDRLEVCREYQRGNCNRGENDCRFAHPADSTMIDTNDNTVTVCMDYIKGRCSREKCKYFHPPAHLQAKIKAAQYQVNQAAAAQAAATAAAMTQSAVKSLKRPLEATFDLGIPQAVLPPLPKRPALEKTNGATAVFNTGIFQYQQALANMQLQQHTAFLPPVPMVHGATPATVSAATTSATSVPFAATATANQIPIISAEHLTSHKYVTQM
In short: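 Compound titration spanned 92 nM–58 uM against the MBNL1-His/biotin-(CUG)12 complex. After 60 min at room temperature with 5 nM streptavidin-XL665 and 0.055 ng/ul terbium anti-His, ratiometric 665/545 nm emission (Ex 340 nm) normalized to controls.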
% is scaled to controls: 0 for no effect and ±100 for the full control effect; potency is read from the fitted curve at half-maximal effect; tags tell the direction and shape of the fitted curve or compound fluorescence and quenching.

| Structure (SMILES) | Potency | activity change, negative = inhibition |
| --- | --- | --- |
| O=C(O)c1ccc(N2C(=O)/C(=C\c3ccccc3)N=C2c2ccccc2)cc1 | inconclusive: 12.6 µM [quencher, side channel, partial curve] |  |
| Cc1ccc2c(c1)C(=O)c1ccccc1CS2=O (stereo not given) | inconclusive: 31.6 µM [quencher, side channel, single point] |  |
| CCOc1ccc(N(CC)S(=O)(=O)c2cccc3nsnc23)cc1 | inconclusive: 14.1 µM [quencher, side channel, partial curve] |  |
| O=C(C[n+]1ccc(-c2nnc3n2CCCCC3)cc1)c1ccc(Cl)cc1 | inconclusive: 17.8 µM [quencher, side channel, partial curve] |  |
| O=C(NNC(=O)c1ccc(SCC2CCCO2)c([N+](=O)[O-])c1)c1ccc(F)cc1 (stereo not given) | inconclusive: 11.2 µM [quencher, side channel, partial curve] |  |
| Cc1ccc(NC(=S)N(C)C(c2ccccc2)c2ccccc2)cc1C |  | inactive: -5.52% |
| Cn1c(=O)c2[nH]c(N=Nc3ccc(N)cc3N)nc2n(C)c1=O | inconclusive: 14.1 µM [quencher, side channel, partial curve] |  |
| CC(=O)Nc1cccc(-c2cnc3ccccc3n2)c1 | inconclusive: 15.8 µM [quencher, side channel, partial curve] |  |
| COc1ccccc1NS(=O)(=O)c1cc(NC(=O)c2cc[n+]([O-])cc2)ccc1N1CCCC1 | inconclusive: 15.8 µM [quencher, side channel, partial curve] |  |
| C[C@H](NC(=O)c1nc[nH]c1C(=O)NCC(=O)OCc1ccccc1)c1ccccc1 |  | inactive: -5.52% |
| O=C(NC(Cc1ccccc1)C(=O)O)/C(=C\c1cccc([N+](=O)[O-])c1)NC(=O)c1ccco1 (stereo not given) | inconclusive: 7.08 µM [quencher, side channel, partial curve] |  |
| COc1cccc(/C=C2/SC(=S)N(CC(=O)NC3C=CS(=O)(=O)C3)C2=O)c1 (stereo not given) | inconclusive: 7.94 µM [quencher, side channel, partial curve] |  |
| CC(=C/C(=O)O)/C=C/c1ccc([N+](=O)[O-])cc1 | inconclusive: 39.8 µM [quencher, side channel, partial curve] |  |
| Cc1cc(OCCOc2cccc3cccnc23)c(C)cc1Cl | inconclusive: 39.8 µM [fluorescent, side channel, single point] |  |
| C/C=C\C=C/C(=O)Nc1cccc(C2=NOC3(C2)C[C@H](C(N)=O)N(C(=O)CC)C3)c1 (stereo not given in full) | inconclusive: 15.8 µM [quencher, side channel, partial curve] |  |
